Assay results reported in article PMC11306250, “Motor domain phosphorylation increases nucleotide exchange and turns MYO6 into a faster and stronger motor” (Nature Communications, 2024).

B1: MYO6 S267A plus T405A double mutant (natural protein)
chain: not shown
notes: Myosin VI (MYO6), human, full-length no-insert isoform, 1253 aa, S267A and T405A; also called S267A+T405A
B2: MYO6 S267A plus T405E double mutant (natural protein)
chain: not shown
notes: Myosin VI (MYO6), human, full-length no-insert isoform, 1253 aa, S267A and T405E; also called S267A+T405E
B3: MYO6 S267E plus T405A double mutant (natural protein)
chain: not shown
notes: Myosin VI (MYO6), human, full-length no-insert isoform, 1253 aa, S267E and T405A; The methods list prints 'S267A plus T405A' twice and never this mutant; also called S267E+T405A
B4: MYO6 S267E plus T405E double mutant (natural protein)
chain: not shown
notes: Myosin VI (MYO6), human, full-length no-insert isoform, 1253 aa, S267E and T405E; also called S267E+T405E

Biological target: rabbit skeletal F-actin labelled with fluorescent phalloidin (gliding assay) (rabbit, UniProt P68135)
Experiment: in vitro actin-gliding assay; MYO6 immobilised directly on nitrocellulose-covered coverslips, fluorescent actin filaments in solution; 25 mM KCl, 4 mM MgCl2, 1 mM EGTA, 1 mM DTT, 25 mM imidazole pH 7.4, 2 mM ATP, 22 °C
Details: both partners purified

Binder | binding result
B1 | binds
B2 | binds
B3 | binds
B4 | binds
